Laboratory results published in PMC2900302.
Results are given in words; binding and its absence hold for the method and conditions named. Binding seen in cells or lysates may run through a third protein. Some binding calls cover weakened binding; strength is not graded here. Where a sequence is shown, tags or fusion partners need not be part of it.

Amino acid sequences for entries named in this document (tags omitted).
UniProt O35185: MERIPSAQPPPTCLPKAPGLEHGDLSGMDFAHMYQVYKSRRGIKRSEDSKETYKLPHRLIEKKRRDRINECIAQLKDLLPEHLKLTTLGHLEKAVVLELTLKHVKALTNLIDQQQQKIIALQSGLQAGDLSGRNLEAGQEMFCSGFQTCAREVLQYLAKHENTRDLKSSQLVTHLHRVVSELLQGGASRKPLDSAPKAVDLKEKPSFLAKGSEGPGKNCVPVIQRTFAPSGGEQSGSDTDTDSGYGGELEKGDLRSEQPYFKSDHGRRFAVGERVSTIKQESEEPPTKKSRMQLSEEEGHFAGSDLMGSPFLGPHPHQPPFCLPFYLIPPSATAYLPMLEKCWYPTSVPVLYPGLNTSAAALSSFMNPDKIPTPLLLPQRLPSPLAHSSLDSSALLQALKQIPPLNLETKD

How the values were obtained:
[1] = biological target: T1, FLAG-tagged Id4 (Inhibitor of DNA binding 4) (UniProt P41139); assay: co-IP; Cos7 cells co-transfected with FLAG-Id4 and one HA-tagged bHLH factor; extracts precipitated with anti-FLAG antibody and Protein G sepharose overnight at 4 C, washed with PBS; Western blot with anti-HA (Figure S4A)
T1 sequence: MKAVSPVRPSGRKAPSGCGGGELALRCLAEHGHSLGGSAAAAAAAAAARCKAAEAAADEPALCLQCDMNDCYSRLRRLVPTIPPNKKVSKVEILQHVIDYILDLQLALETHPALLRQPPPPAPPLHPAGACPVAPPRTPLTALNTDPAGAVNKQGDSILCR

[2] = biological target: T1, FLAG-tagged Id4 (Inhibitor of DNA binding 4); assay: co-IP; FLAG-Id4 and HA-Hey2 in 293FT cells, immunoprecipitation and Western blot (Figure 6A)
[3] = biological target: T2, recombinant glutathione S-transferase-tagged Id4 (UniProt P41139); assay: pull-down; GST-Id4 from E. coli crude extract held on glutathione sepharose beads (4 hr, 4 C), incubated with E. coli extract of Flag-Hey2 overnight at 4 C; Western blot with anti-Flag (Figure S4B); only the target purified
T2 sequence: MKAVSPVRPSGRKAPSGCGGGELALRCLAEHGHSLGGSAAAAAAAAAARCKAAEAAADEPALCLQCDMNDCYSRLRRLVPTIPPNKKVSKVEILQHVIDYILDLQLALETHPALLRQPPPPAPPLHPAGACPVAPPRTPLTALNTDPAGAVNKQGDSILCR

| binding [1] | binding [3] | Molecule | binding [2] |
| --- | --- | --- | --- |
| no binding | – | HA-tagged Hes1 (protein, UniProt P35428 1-282) MPADIMEKNSSSPVAATPASVNTTPDKPKTASEHRKSSKPIMEKRRRARINESLSQLKTLILDALKKDSSRHSKLEKADILEMTVKHLRNLQRAQMTAALSTDPSVLGKYRAGFSECMNEVTRFLSTCEGVNTEVRTRLLGHLANCMTQINAMTYPGQAHPALQAPPPPPPSGPAGPQHAPFAPPPPPLVPIPGGAAPPPGSAPCKLGSQAGEAAKVFGGFQVVPAPDGQFAFLIPNGAFAHSGPVIPVYTSNSGTSVGPNAVSPSSGSSLTSDSMWRPWRN | – |
| no binding | – | HA-tagged Hey1 (hairy/enhancer-of-split related with YRPW motif 1) (protein, UniProt Q9WV93 1-299) MKRAHPDYSSSDSELDETIEVEKESADENGNLSSALCSMSPTTSSQVLARKRRRGIIEKRRRDRINNSLSELRRLVPSAFEKQGSAKLEKAEILQMTVDHLKMLHTAGGKGYFDAHALAMDYRSLGFRECLAEVARYLSIIEGLDASDPLLVRLVSHLNNYASQREAASGAHGGLGHIPWGSAFGHHPHIAHPLLLPQNGHGNAGTAASPTEPHHQGRLASAHPEAPALRAPPSGGLGPVLPVVTSASKLSPPLLSSVASLSAFPFSFSSFHLLSPSTPTQAANLGKPYRPWGTEIGAF | – |

Further lines, the molecule ahead of its results:

| Molecule | binding [1] | binding [3] | binding [2] |
| --- | --- | --- | --- |
| HA-tagged Bhlhe40 (basic helix-loop-helix family member e40) (from UniProt O35185 1-411) | no binding | – | – |
| human influenza hemagglutinin-tagged Hey2 (hairy/enhancer-of-split related with YRPW motif 2) (protein, UniProt Q9QUS4 1-339) MKRPCEETTSESDLDETIDVGSENNYPGHATSSVMRSNSPTTTSQIMARKKRRGIIEKRRRDRINNSLSELRRLVPTAFEKQGSAKLEKAEILQMTVDHLKMLQATGGKGYFDAHALATDFMSIGFRECLTEVARYLSSVEGLDPSDPLRVRLVSHLSTCASQREAAVMTSSMAHHHHPLHPHHWAAAFHHLPTALLQPNGLHTSESTPCRLSTSSEVPSAHGSALLTATFAHADSALRMPSGGTVAPCVPPLSTSLLSLSATVHAAAAAATAAAHSFPLSFAGAFPMLPSNAAAAAAVAAATAISPPLSVSAASSPQQTSTGTNNKPYQPWGTEVGAF | binds | – | binds |
| recombinant FLAG-tagged Hey2 (protein, UniProt Q9QUS4 1-339) MKRPCEETTSESDLDETIDVGSENNYPGHATSSVMRSNSPTTTSQIMARKKRRGIIEKRRRDRINNSLSELRRLVPTAFEKQGSAKLEKAEILQMTVDHLKMLQATGGKGYFDAHALATDFMSIGFRECLTEVARYLSSVEGLDPSDPLRVRLVSHLSTCASQREAAVMTSSMAHHHHPLHPHHWAAAFHHLPTALLQPNGLHTSESTPCRLSTSSEVPSAHGSALLTATFAHADSALRMPSGGTVAPCVPPLSTSLLSLSATVHAAAAAATAAAHSFPLSFAGAFPMLPSNAAAAAAVAAATAISPPLSVSAASSPQQTSTGTNNKPYQPWGTEVGAF | – | binds | – |
